Data from the supplement of paper PMC5499739.
The full ranking holds about 16,000 sequences; the median of “Z-score” is about -0.37, and the highest 2% start at about 3.2. Some of the results follow.

Test system: RBM10 RRM1-ZnF (GST-tagged construct)
Test: RNAcompete 7-mer binding Z-score; higher = stronger binding preference
How it was run: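 Bound RNA was identified by microarray hybridisation after GST-tagged RBM10 constructs (20 pmol) had been mixed with 1.5 nmol of a designed pool of 241 399 RNAs up to 41 nt, transcribed from microarray-derived DNA templates. Binding ran for 30 min at 4°C in 1 ml Hepes pH 7.8 buffer with KCl, NaCl, glycerol, DTT, BSA and glutathione Sepharose beads, with four 2-min washes at 4°C afterwards. For every heptamer motif, a one-sided Z-score for enrichment was computed across the probes that contained it.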

| Sequence | RNAcompete 7-mer binding Z-score |
| --- | --- |
| GGUGAGU | 1.96 |
| UACUGUU | -0.565 |
| UCAGCUU | -0.737 |
| AUGCGGG | 2.62 |
| CUAAGUA | -0.269 |
| AUUUUAA | -0.756 |
| UGAUGCA | 0.0495 |
| GCUCGGG | 0.69 |
| GUAUGUA | 0.625 |
| GGGCGAA | 2.22 |
| CGUUGAU | -0.448 |
| GCUUGCA | -0.587 |
| ACGACUA | -0.496 |
| CACCGUA | -0.623 |
| GCGAUGA | 0.537 |
| GUAUAAC | -0.149 |
| CCAAUAA | -0.766 |
| AAGAGUU | 0.426 |
| UCAAGCA | -0.48 |
| GCGGGCU | 1.1 |
| UUAGUCA | -0.396 |
| GACCUGA | -0.717 |
| UAAUCUU | -0.824 |

| Sequence | RNAcompete 7-mer binding Z-score |
| --- | --- |
| CCAGCAC | -0.526 |
| UAUUGUA | -0.347 |
| UGGGCUC | 1.09 |
| AUCCAAC | -0.792 |
| AAAUAAC | -0.545 |
| UUGUAAG | 0.102 |
| AUGAUGU | 0.339 |
| CUCUUCG | -0.792 |
| GGCAGCA | 0.29 |
| AAUAUAC | -0.594 |
| UCCGUAG | -0.327 |
| CCUGCUU | -0.935 |
| GUUCGUU | -0.366 |
| ACCUCCC | -0.578 |
| CCUUCAG | -0.805 |
| GGCCGCG | -0.0382 |
| AUGGCAA | 0.839 |
| GUAGCUU | -0.441 |
| UCUCGCC | -0.75 |
| CGAGACU | -0.438 |
| UCAUUGU | -0.72 |
| GAACCCU | -0.772 |
| UCCUAGA | -0.73 |

| Sequence | RNAcompete 7-mer binding Z-score |
| --- | --- |
| GAGGACC | 0.235 |
| CAUGCGU | -0.568 |
| CGUUUGU | -0.461 |
| GGUUGAU | 1.7 |
| GCUGACU | -0.311 |
| AGGUUGU | 0.803 |
| UUUUGUG | -0.0869 |
| AGCACCU | -0.613 |
| UCUCAUA | -0.678 |
| GGAACAA | 0.884 |
| GACAGAC | -0.11 |
| GGCGUGG | 2.9 |
| CGGCGCG | 0.413 |
| UUAGAAA | -0.0739 |
| UUGCUGA | -0.324 |
| GGUUUUA | 0.677 |
| AUAUUGG | 0.897 |
| CCUCGGC | -0.47 |
| CUAUCGC | -0.668 |
| CAUUGGA | 0.326 |
| CAUUCCC | -0.763 |
| CGUUGAA | -0.249 |
| AAUGCAG | -0.0155 |

| Sequence | RNAcompete 7-mer binding Z-score |
| --- | --- |
| UGAGACA | 0.222 |
| CUAUCGU | -0.727 |
| AAAUGAG | 0.488 |
| AUGACCG | -0.425 |
| GAUGACU | -0.184 |
| UGUUUAC | -0.642 |
| UGGUUAG | 2.24 |
| UGACCCG | -0.142 |
| GAGCCAC | -0.457 |
| CCCCGUG | 0.482 |
| CCCACAU | -0.626 |
| AACCCUC | -0.828 |
| CUCUCGG | -0.568 |
| AUCGGGU | 1.7 |
| GUCAUUA | -0.37 |
| UGAAAGU | 0.296 |
| AUAUCAU | -0.558 |
| AGUGACA | 0.218 |
| GACUGGU | 1.05 |
| UGUUCAG | -0.435 |
| GACUAAU | -0.396 |
| AUAGUAC | -0.373 |
| GACCCGA | -0.594 |

| Sequence | RNAcompete 7-mer binding Z-score |
| --- | --- |
| CGGUAUG | 0.985 |
| UAGAGUU | -0.0739 |
| UCACGGU | -0.175 |
| UGCCGGA | -0.0479 |
| CCGAUGG | 0.267 |
| GAUCCGG | -0.0122 |
| GAUCUUA | -0.561 |
| CGGAUUG | 0.897 |
| GCCAGAG | 0.00729 |
| UCCAGGC | -0.623 |
| GGACCUA | -0.149 |
| UGCUACA | -0.545 |
| UCACUGG | -0.0317 |
| ACAUGUG | 0.381 |
| AUACUGG | 0.352 |
| GUGUGUG | 1.13 |
| AGGGAGG | 3.68 |
| GCCUCCG | -0.493 |
| GCGGCAU | 0.361 |
| AGAGGCU | -0.243 |
| UACAACA | -0.149 |
| UAAGAUC | -0.496 |
| CAGGACU | 0.183 |

| Sequence | RNAcompete 7-mer binding Z-score |
| --- | --- |
| UGCAGGA | 0.966 |
| GUAGGUG | 3.06 |
| GACACGG | 1.05 |
| CGAAAAU | -0.477 |
| AUCUCGA | -0.724 |
| GCGGAAC | 0.901 |
| ACUGGGA | 2.35 |
| AUUGGAA | 1.29 |
| AAGCAGA | 0.475 |
| CAGUCCU | -0.837 |
| GUAAGUG | 1.25 |
| AUGUUAC | -0.47 |
| UCGUGCC | -0.655 |
| CAUCUAC | -0.704 |
| CUCGCUC | -0.743 |
| UCGGGAG | 1.12 |
| UCCCAAC | -0.6 |
| GGCGUGA | 1.04 |
| CUCAUUU | -0.997 |
| CUUCUUC | -0.854 |
| UUGGCCU | -0.509 |
| UGGCUCA | 0.0333 |
| UUUCUAA | -0.717 |

| Sequence | RNAcompete 7-mer binding Z-score |
| --- | --- |
| UAAAUUU | -0.691 |
| CGUUGGG | 1.9 |
| ACGUCUU | -0.85 |
| CAUAGUA | -0.149 |
| AGCUCCG | -0.766 |
| CUGUCAA | -0.607 |
| AUCGGUU | -0.035 |
| UUGCCUA | -0.597 |
| CGGACUU | -0.285 |
| UCAGCUG | -0.373 |
| GGGCGGA | 2.86 |
| AGAAGUC | -0.405 |
| ACACAUU | -0.737 |
| CACUAUA | -0.532 |
| CCGACCC | -0.509 |
| GUAUAGU | 0.472 |
| CGUGAUG | 0.605 |
| GCCGGGA | 0.638 |
| UACCCAG | -0.659 |
| CAAUUAU | -0.753 |
| GGCGGGA | 3.05 |
| AUGAAAG | 1.08 |
| CCGCCCC | -0.477 |

| Sequence | RNAcompete 7-mer binding Z-score |
| --- | --- |
| AUUUGGA | 0.647 |
| AUGAUCG | -0.022 |
| CGCGGCC | -0.383 |
| CCGCGGU | 0.443 |
| GUUGCUA | -0.197 |
| CACAUGU | -0.448 |
| GGUCGGU | 1.24 |
| CUUCGGU | -0.422 |
| AAACGCC | -0.785 |
| GGGCCUU | -0.0999 |
| UUCUGAU | -0.831 |
| CGGUUUU | 0.0268 |
| ACUGUUG | -0.256 |
| UUAGUGA | 0.102 |
| UACUGUC | -0.789 |
| CCUACAC | -0.847 |
| CGACCUC | -0.792 |
| GCGAUGC | 0.102 |
| AUUAGCA | -0.0869 |
| CCUAGCC | -0.613 |
| CAACAGG | 0.699 |
| UCACGAU | -0.591 |
| AUUGCGA | -0.181 |
